Measured values as given in PubChem BioAssay AID1347055 (National Center for Advancing Translational Sciences (NCATS), 2019).
In all, about 54,000 compounds went through this assay and about 120 (0.22%) were called active. This list was built around the results that the source calls inconclusive (neither active nor inactive); the mix of calls is not that of the screen. The call rests on the fitted dose curve; in most records, active means well fitted inhibition curve with a large enough effect; inconclusive means small, poorly fitted or top-dose-only effect, or effect the other way; inactive means flat fitted curve, though single readings scatter. No potency is given beside an inconclusive call; the fits are too rough.

Target: Fumarate hydratase, mitochondrial (Homo sapiens) (UniProt P07954)
Experiment: Identification of activators of human fumarate hydratase by quantitative high-throughput screening; further: the screen sought activators but most active calls are inhibition curves; nearly all actives have a fitted effect of over 45% in size
Conditions: FH coupled MDH/diaphorase resazurin fluorescence, 15 min; activity change, negative = inhibition: at 79.9 µM (top of the series)
On the % scale 0 is the no-effect control and ±100 the full control effect; potency means the concentration at half of the fitted maximal effect; tags describe the fitted curve by direction and shape.

Sequence of UniProt P07954 (P07954 whole entry, looked up): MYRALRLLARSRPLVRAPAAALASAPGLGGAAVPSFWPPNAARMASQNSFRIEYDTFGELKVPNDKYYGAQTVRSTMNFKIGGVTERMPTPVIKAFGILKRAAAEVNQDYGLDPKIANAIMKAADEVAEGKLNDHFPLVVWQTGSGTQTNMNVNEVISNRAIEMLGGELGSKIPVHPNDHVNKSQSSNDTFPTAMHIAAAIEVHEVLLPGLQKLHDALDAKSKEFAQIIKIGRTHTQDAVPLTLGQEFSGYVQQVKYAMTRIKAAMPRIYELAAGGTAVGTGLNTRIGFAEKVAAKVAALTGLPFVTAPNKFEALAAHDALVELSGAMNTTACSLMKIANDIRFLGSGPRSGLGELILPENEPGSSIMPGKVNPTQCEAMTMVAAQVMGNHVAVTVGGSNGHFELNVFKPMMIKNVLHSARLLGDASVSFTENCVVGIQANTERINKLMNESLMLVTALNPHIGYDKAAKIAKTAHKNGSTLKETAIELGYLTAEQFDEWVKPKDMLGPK

Row | SMILES | Potency | activity change, negative = inhibition
1 | Cc1nc2c(C(=O)NCCc3ccc(Cl)cc3)cnn2c(C)c1Cc1ccc(F)cc1 | inconclusive [inhibitor, partial curve] | –
2 | CCS(=O)(=O)c1cccc(C(=O)Nc2ccc(-c3nc4ccccc4s3)c(O)c2)c1 | – | inactive: 5.35%
3 | Cc1cc(S(=O)(=O)Nc2ccc(O)c(Sc3nc4ccccc4s3)c2)ccc1Cl | inconclusive [inhibitor, single point] | –
4 | Cc1ccc(Nc2nnc(-c3ccc(C)c(S(N)(=O)=O)c3)c3ccccc23)cc1 | inconclusive [inhibitor, partial curve, poor fit] | –
5 | COc1ccc(Cc2nc3ccc(C(=O)NCc4ccccc4Cl)cc3o2)cc1 | – | inactive: -18.8%
6 | Cc1ccc2[nH]c(=O)c(C3=NN(C(=O)CCC(=O)O)C(c4ccc(Br)cc4)C3)c(-c3ccccc3)c2c1 (stereo not drawn) | inconclusive [inhibitor, partial curve] | –
7 | C=C1CCC2C(C)(C)CC(O)CC2(C)C1CCC(C)CC(=O)O (stereo not drawn) | – | inactive: 2.82% [at 53.3 µM]
8 | COc1ccc(Nc2c(-c3ccc(C)o3)nc3cc(C)ccn23)cc1 | inconclusive [inhibitor, partial curve, poor fit] | –
9 | O=C(CSc1nc2ccccc2n1Cc1ccccc1Cl)NCc1ccccc1 | inconclusive [inhibitor, single point] | –
10 | COc1cccc(CNC(=O)CCNS(=O)(=O)c2ccc3c(c2)oc(=O)n3C)c1 | inconclusive [inhibitor, partial curve, poor fit] | –
11 | CC(NC(=O)C(=O)Nc1c2c(nn1-c1ccc(F)cc1)CSC2)c1ccccc1 (stereo not drawn) | inconclusive [inhibitor, single point] | –
12 | COc1ccc2c(c1)CCc1c(C(=O)Nc3c(C)nn(Cc4ccc(C)cc4)c3C)noc1-2 | inconclusive [inhibitor, partial curve] | –
13 | N=C(N)c1ccc2cc(OC(=O)c3ccc(N=C(N)N)cc3)ccc2c1 | inactive | –
14 | C[C@@]12O[C@@H](C[C@]1(O)CO)n1c3ccccc3c3c4c(c5c6ccccc6n2c5c31)CNC4=O | inconclusive [inhibitor, single point] | –
15 | Cc1nc2c(C(=O)NC(C)c3ccccc3)cnn2c(C)c1Cc1ccccc1 (stereo not drawn) | inconclusive [inhibitor, partial curve, poor fit] | –
16 | COc1cc(OC)cc(-c2nc3nc(C)c(CCC(=O)Nc4cc(F)ccc4F)c(C)n3n2)c1 | – | inactive: -6.82%
17 | O=C(CCNS(=O)(=O)c1ccc2c(c1)CCN2C(=O)C1CC1)Nc1ccc(F)cc1F | – | inactive: 6.81%
18 | CCOC(=O)CSc1nc2ccc(NC(=O)c3ccccc3)cc2s1 | inconclusive [inhibitor, partial curve, poor fit] | –
19 | COc1ccccc1Nc1c2c(nc3ccc(NC(=O)c4cccc(F)c4)cc13)CCCC2 | inconclusive [inhibitor, single point] | –
20 | COc1ccc(-c2noc(CSc3nnc(-c4ccc(Cl)cc4)n3C)n2)cc1OC | inconclusive [inhibitor, partial curve] | –

Row | SMILES | Potency | activity change, negative = inhibition
21 | CC(C)c1ccc(NC(=O)CSc2nc(=O)n(Cc3cccnc3)c3c2CCC3)cc1 | inconclusive [inhibitor, single point] | –
22 | CN1CCN(C(=O)Nc2cccc(Cl)c2)c2cccnc21 | – | inactive: 13.1%
23 | Cc1ccc(NC(=O)CN2C(=O)CCc3cc(S(=O)(=O)N4CCCCC4)ccc32)cc1N(C)C | inconclusive [inhibitor, single point] | –
24 | Cc1ccc(C)c(N2CCN(C(=O)c3ccc4[nH]c(C)c(C)c4c3)CC2)c1 | inconclusive [inhibitor, single point] | –
25 | CCOc1ccc(C(=O)Nc2cccc(-c3nc4cccnc4s3)c2C)cc1OCC | inconclusive [inhibitor, single point] | –
26 | Cc1cccc(-c2nc(CSCC(=O)N3CCN(c4cccc(C)c4C)CC3)c(C)o2)c1 | inconclusive [inhibitor, partial curve] | –
27 | CCc1ccc2c(c1)NC(c1cccnc1)=NC(c1ccc(C(C)(C)C)cc1)=N2 | inconclusive [inhibitor, partial curve, poor fit] | –
28 | CC(C)CC(=O)O[C@@H]1O[C@H](CO)[C@@H](O[C@H]2O[C@H](C)[C@@H](N[C@H]3C=C(CO)[C@@H](O[C@H]4O[C@H](CO)[C@@H](O[C@H]5O[C@H](CO)[C@@H](O[C@H]6O[C@H](CO)[C@@H](O)[C@H](O)[C@H]6O)[C@H](O)[C@H]5O)[C@H](O)[C@H]4O)[C@H](O)[C@H]3O)[C@H](O)[C@H]2O)[C@H](O)[C@H]1O | – | inactive: 8.78% [at 20.6 µM]
29 | Cc1nn(-c2ccccc2)c2sc(C(=O)Nc3cccc(O)c3)cc12 | inconclusive [inhibitor, single point] | –
30 | COc1cc(/C=C(\C#N)C(=O)Nc2nnc(C(F)(F)F)s2)ccc1OCc1ccc(C(F)(F)F)cc1C(F)(F)F | inconclusive [inhibitor, partial curve] | –
31 | CCOc1ccc(NS(=O)(=O)c2ccc3nc(-c4ccccc4)[nH]c3c2)cc1 | inconclusive [inhibitor, single point] | –
32 | COc1cc(OC)c(Nc2c3c(nc4nc(-c5cccs5)nn24)CCCC3)cc1Cl | inconclusive [inhibitor, full curve] | –
33 | O=C(Nc1cccc2c(=O)cc(-c3nn[nH]n3)oc12)c1ccc(OCCCCc2ccccc2)cc1 | inconclusive [inhibitor, single point] | –
34 | O=C(Nc1cc(Cl)cc(Cl)c1)c1ccc(F)c(S(=O)(=O)NCc2ccccc2Cl)c1 | – | inconclusive: -30.1% [inhibitor]
35 | Cc1coc2c1CC1OC1(C)CCC1OC1(C)C2 (stereo not drawn) | – | inactive: -1.39%
36 | COc1ccc(C)cc1NC(=O)c1ccc2c(c1)CCN2S(=O)(=O)c1ccc(Cl)cc1 | – | inactive: -13.5%
37 | Cc1cccc(-c2noc(-c3ccc(N4CCN(C)CC4)c([N+](=O)[O-])c3)n2)c1 | – | inactive: -34.4%
38 | Cc1ccc(C2=CC(c3c(F)cccc3Cl)n3ncnc3N2)cc1C (stereo not drawn) | – | inactive: -4.05%
39 | O=C(/C=C/c1ccc(O)cc1)O[C@H]1[C@@H]2C=CO[C@@H](O[C@@H]3O[C@H](CO)[C@@H](O)[C@H](O)[C@H]3O)[C@@H]2[C@@]2(CO)O[C@@H]12 | – | inactive: -2% [at 53.3 µM]
40 | CNC(=O)c1c[nH]c2ccc(S(=O)(=O)Nc3cccc(Cl)c3C)cc2c1=O | – | inactive: -10.5%

Row | SMILES | Potency | activity change, negative = inhibition
41 | CC(/C=C/c1cccc(Oc2ccc(F)cc2)c1)N(O)C(N)=O (stereo not drawn) | inconclusive [inhibitor, single point] | –
42 | CCc1ccc(C(=O)c2cn(CC(=O)Nc3ccc(C)c(C)c3)c3ccccc3c2=O)cc1 | inconclusive [inhibitor, partial curve, poor fit] | –
43 | O=C(NCC1CCCO1)c1c[nH]c2ccc(S(=O)(=O)Nc3cccc(C(F)(F)F)c3)cc2c1=O (stereo not drawn) | inconclusive [inhibitor, single point] | –
44 | CC(C)N(Cc1ccccc1)C(=O)CCS(=O)(=O)c1ccc2c(c1)oc(=O)n2C | inconclusive [inhibitor, partial curve, poor fit] | –
45 | Cc1ccc(NC(=O)CN2CCSc3ccc(S(=O)(=O)N4CCCC4)cc32)cc1C | inconclusive [inhibitor, partial curve] | –
46 | COc1cc(OC)c(NS(=O)(=O)c2cc(-c3cnc(C4CC4)o3)ccc2C)cc1Cl | inconclusive [inhibitor, partial curve] | –
47 | COc1cccc2c1Oc1ncccc1N(C(=O)CCC(=O)NCc1ccccc1Cl)C2 | inconclusive [inhibitor, single point] | –
48 | O=C(CN1C(=O)COc2ccc(S(=O)(=O)Nc3ccccc3)cc21)Nc1cccc(Cl)c1 | inconclusive [inhibitor, partial curve] | –
49 | O=C(Nc1ccc(Br)cc1F)N1CCC2(CC1)Oc1ccccc1C(=O)N2Cc1ccccc1F | inconclusive [inhibitor, partial curve, poor fit] | –
50 | Cc1cc(C)cc(NS(=O)(=O)c2ccc3[nH]cc(C(=O)NCc4ccccc4Cl)c(=O)c3c2)c1 | inconclusive [inhibitor, single point] | –
51 | Cc1c(C(=O)NCCc2ccc(Cl)cc2)sc2nc3n(c(=O)c12)CCCC3 | inconclusive [inhibitor, partial curve] | –
52 | COc1ccc(NC(=O)CSc2nc3nc(C)c(Cc4ccccc4Cl)c(C)n3n2)cc1OC | inconclusive [inhibitor, single point] | –
53 | COc1cc2c(cc1OC)C(COc1cc(C)cc(C)c1)N(C(=O)COc1ccccc1)CC2 (stereo not drawn) | inconclusive [inhibitor, partial curve, poor fit] | –
54 | COc1cc(OC)c(OC)cc1CNc1sc2c(c1C(=O)Nc1ccccc1OC)CCC2 | inconclusive [inhibitor, single point] | –
55 | Cc1ccc(C2CC(=O)Nc3cc4c(cc32)OCCO4)cc1Br (stereo not drawn) | inconclusive [inhibitor, partial curve, poor fit] | –
56 | CCCCn1c(CNC(=O)C23CC4CC(CC(C4)C2)C3)nnc1SCC(=O)Nc1ccc(C)cc1 | inconclusive [inhibitor, partial curve, poor fit] | –
57 | COc1ccc(OC)c(CNC(=O)Nc2cn(CC(C)C)c(=O)c3ccccc23)c1 | active: 31.6 µM [activator] | –
58 | CCOC(=O)c1c(C)sc(-c2c(-c3ccccc3)[nH]c3[nH]c(=O)[nH]c(=O)c23)c1O | inconclusive [inhibitor, partial curve, poor fit] | –
